{
  "source": "the supplement of paper PMC12645437",
  "about": "“Orthogonal IMiD-Degron Pairs Induce Selective Protein Degradation in Cells” (ACS Chemical Biology, 2025)",
  "note": "The other results are listed elsewhere or left out.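 Further: jurkat cells carrying a lentiviral library of mutant zinc finger degrons fused to EGFP plus mCherry, mCherry+ cells FACS sorted, degron abundance counted by next-generation sequencing.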",
  "data": [
    {"target": "no compound (DMSO)", "experiment": "log2 fold change of degron read counts, EGFP-low vs EGFP+ sorted cells; higher = lower degron-EGFP level without compound (poor expression or instability)", "conditions": "compound: DMSO control; 18 h", "values": [
      {"sequence": "FLCEICGAMFTQKGNLLRHIKL", "log2 fold change of degron read counts": -1.12},
      {"sequence": "FRCNICGASFTQKGNLLRHIKL", "log2 fold change of degron read counts": -0.361},
      {"sequence": "FGCEQCGAHFTQKGNLLRHIKL", "log2 fold change of degron read counts": -0.798},
      {"sequence": "FCCDICGAKFTQKGNLLRHIKL", "log2 fold change of degron read counts": -0.446},
      {"sequence": "FYCDQCGAHFTQKGNLLRHIKL", "log2 fold change of degron read counts": -1.28},
      {"sequence": "FICNQCGRWFTQKGNLLRHIKL", "log2 fold change of degron read counts": 0.908},
      {"sequence": "FGCPVCGAEFTQKGNLLRHIKL", "log2 fold change of degron read counts": -0.403},
      {"sequence": "FYCDQCGAWFTQKGNLLRHIKL", "log2 fold change of degron read counts": 0.185},
      {"sequence": "FQCSVCGHVFTQKGNLLRHIKL", "log2 fold change of degron read counts": -0.227},
      {"sequence": "FRCPQCGAFFTQKGNLLRHIKL", "log2 fold change of degron read counts": -0.322},
      {"sequence": "FKCEVCGAIFTQKGNLLRHIKL", "log2 fold change of degron read counts": -1.95},
      {"sequence": "FECPICGHQFTQKGNLLRHIKL", "log2 fold change of degron read counts": -1.93},
      {"sequence": "LYCEICGFECTQKGNLLRHIKL", "log2 fold change of degron read counts": 0.0412},
      {"sequence": "FYCEVCGAFFTQKGNLLRHIKL", "log2 fold change of degron read counts": 0.0341}
    ]}
  ]
}
